Screen size: about 310,000 compounds; about 14,000 (4.5%) showed an effect of 50% or more. The effect is printed as a negative number. The list shows a part of the results.
molecular target: human ether-à-go-go-related gene (hERG) potassium channel (human, UniProt Q12809); assay: primary screen, population patch clamp on CHO cells stably expressing hERG
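Also: peak tail current of the secondary pulse compared with the same well before compound.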

human ether-à-go-go-related gene (hERG) potassium channel, sequence (Q12809 whole entry, looked up): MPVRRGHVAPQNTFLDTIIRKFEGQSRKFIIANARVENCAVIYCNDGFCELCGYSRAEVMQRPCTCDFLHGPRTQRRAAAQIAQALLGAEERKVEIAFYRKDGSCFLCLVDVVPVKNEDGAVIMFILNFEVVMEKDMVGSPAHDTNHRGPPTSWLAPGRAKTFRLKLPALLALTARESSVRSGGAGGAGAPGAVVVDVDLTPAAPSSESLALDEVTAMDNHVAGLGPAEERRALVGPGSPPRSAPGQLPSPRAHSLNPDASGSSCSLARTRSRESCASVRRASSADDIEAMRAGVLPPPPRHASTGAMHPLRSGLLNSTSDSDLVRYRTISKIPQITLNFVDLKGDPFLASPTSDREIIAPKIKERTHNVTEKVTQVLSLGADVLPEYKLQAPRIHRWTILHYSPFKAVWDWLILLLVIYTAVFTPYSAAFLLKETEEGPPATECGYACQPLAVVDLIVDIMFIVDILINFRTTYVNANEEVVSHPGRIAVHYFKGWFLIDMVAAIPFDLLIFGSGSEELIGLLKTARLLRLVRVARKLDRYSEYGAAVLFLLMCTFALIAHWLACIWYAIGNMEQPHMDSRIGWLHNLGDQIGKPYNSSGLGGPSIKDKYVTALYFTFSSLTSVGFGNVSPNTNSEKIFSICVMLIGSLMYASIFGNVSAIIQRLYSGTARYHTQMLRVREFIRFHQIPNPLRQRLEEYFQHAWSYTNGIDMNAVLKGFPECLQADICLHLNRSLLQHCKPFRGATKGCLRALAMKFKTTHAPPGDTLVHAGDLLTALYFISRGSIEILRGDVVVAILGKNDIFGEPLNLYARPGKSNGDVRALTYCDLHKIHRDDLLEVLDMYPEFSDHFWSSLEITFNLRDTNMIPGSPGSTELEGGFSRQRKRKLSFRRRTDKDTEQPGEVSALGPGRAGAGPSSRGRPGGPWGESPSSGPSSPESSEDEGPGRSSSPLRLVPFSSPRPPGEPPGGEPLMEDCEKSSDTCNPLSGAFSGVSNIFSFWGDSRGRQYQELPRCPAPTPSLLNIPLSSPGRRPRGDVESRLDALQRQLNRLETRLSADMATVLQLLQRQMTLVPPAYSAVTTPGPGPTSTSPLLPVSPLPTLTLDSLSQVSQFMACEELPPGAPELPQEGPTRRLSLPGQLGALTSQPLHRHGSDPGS

| Compound | hERG current change (%, negative = inhibition) at 10uM [%] |
| --- | --- |
| C/C(=N\Nc1ccccn1)c1ccc(OC(F)F)cc1 | -71.3 |
| COc1ccc(CCNC(=O)CSc2ccc(-c3ccccc3)nn2)cc1OC | 5.62 |
| O=C(NCCCN1CCCC1)c1cccc(N2CCCC2=O)c1 | 15.6 |
| CS(=O)(=O)N(Cc1ccccc1)c1ccccc1C(=O)Nc1ccccc1C(=O)NCc1ccco1 | -21.1 |
| COc1ccc(NC(C)=O)cc1CP(=O)(c1ccccc1)c1ccccc1 | 22.8 |
| O=C(CN(C(=O)c1csnn1)c1cccc2c1CCCC2)NCc1ccccc1 | -5.19 |
| N#C/C(=C\c1c[nH]c2ccccc12)c1nnc2n1CCCCC2 | -29.5 |
| COC(=O)C1C2C=CC3(CN(c4ccc(Cl)c(F)c4)C(=O)C13)O2 (centres unmarked) | 4.99 |
| COc1ccccc1CNC(=O)CNC(=O)[C@@H]1Cc2ccccc2CN1 | 1.14 |
| c1cncc(CNc2ncnc3ccc(-c4ccoc4)cc23)c1 | -71.4 |
| O=C(OCCN1CCN(c2ncc(C(F)(F)F)cc2Cl)CC1)c1ccc(F)cc1 | 0.119 |
| CC1CC(C)CN(C(=O)CSc2nnc(-c3ccc(F)cc3)o2)C1 (centres unmarked) | -16.9 |
| CCn1cnc2sc(C(=O)N3CCN(c4ccc(OC)cc4)CC3)c(C)c2c1=O | -12.6 |
| COc1ccc(Nc2nc3ccccc3n3nnnc23)cc1 | -7.93 |
| CC1CCCC(NC(=O)C2c3ccccc3C(=O)N2Cc2cccs2)C1C (centres unmarked) | -34.7 |
| C=CCN1C(=O)C2C(C(=O)NCc3ccccc3)C3C=CC2(O3)C1C(=O)NC(C)(C)C (centres unmarked) | 5.87 |
| O=C(c1cccc(C(F)(F)F)c1)C1CCCN(C(=O)C2CCOCC2)C1 (centres unmarked) | -51.3 |
| COC(=O)C1CN(C(=O)C(C)Oc2ccccc2F)c2ccccc2O1 (centres unmarked) | 15.6 |
| O=C(CN1C(=O)NC2(CCCC2)C1=O)Nc1cccc(-c2nnc3n2CCCCC3)c1 | 0.285 |
| CCN1CCN(c2cc(C)c3cc(NC(=O)c4cccc(OC)c4)ccc3n2)CC1 | -50.9 |
| Cc1ccc(NC(=O)CN2C(=O)NC3(CCc4ccccc43)C2=O)cc1 (centres unmarked) | 8.14 |
| CC(=O)C1=C(O)C(=O)N(c2ccc(O)cc2)C1c1cccc(F)c1 (centres unmarked) | 22.4 |
| COc1ccc(/C=C2\SC(=O)N(CC(=O)NCCC(C)C)C2=O)cc1OC | -8.73 |

| Compound | hERG current change (%, negative = inhibition) at 10uM [%] |
| --- | --- |
| COc1ccc(S(=O)(=O)NC2CCCC2)c(OC)c1 | 9.46 |
| CCOC(=O)N1CCN(C(=O)CCN2C(=O)c3ccccc3S2(=O)=O)CC1 | 5.79 |
| COc1ccc(C2(C)NC(=O)N(CC(=O)Nc3ccc(-c4nc5ccc(C)cc5s4)cc3)C2=O)cc1 (centres unmarked) | 24.7 |
| COc1ccc(CNC(c2ccccc2)c2ccc(Cl)cc2)cc1 (centres unmarked) | 6.38 |
| Cc1nc2cc(C(F)(F)F)ccc2n1C | -1.2 |
| CCOC(=O)c1c(NC(=O)c2ccc(C)cc2)sc2c1CC(C)(C)OC2 | 4.97 |
| Cc1nc(-c2ccc([N+](=O)[O-])cc2)c(-c2ccccc2)o1 | -26.6 |
| COCCNC(=O)c1ccc(CS(=O)(=O)c2ccc(Cl)cc2)o1 | 12.1 |
| O=C(NNC(=S)NCc1ccccc1)c1ccccc1OC(F)F | 10.8 |
| CC(=O)N1CCN=C1SCc1cccc(Cl)c1 | -3.91 |
| COc1ccc(/C=N/OC(=O)Nc2ccccc2OC)cc1 | -10.7 |
| Oc1[nH]c2ccc(Br)cc2c1N=NC(=S)N1CCOCC1 | 11.5 |
| COc1ccc(CCNC(=O)COC(=O)Cc2ccccc2)cc1 | 9.35 |
| CCc1nnc(NC(=O)CSc2nnc(-c3c[nH]c4ccccc34)n2CCOC)s1 | -8.63 |
| COc1cc(OC)cc(C(=O)N[C@H](C(=O)Nc2cc(F)ccc2C)C(C)C)c1 | 8.53 |
| Cc1ccc(Cl)cc1NC1=C/C(=N\S(=O)(=O)c2cccs2)c2ccccc2C1=O | 3.07 |
| O=C(c1ccc2nc[nH]c2c1)N1CCN(c2cccc(C(F)(F)F)c2)CC1 | -11.4 |
| O=C(CSc1ccc2c(c1)OCCO2)NC(=O)NC1CCCC1 | -4.02 |
| CSc1ccc(Cc2ccc(Cl)cc2Cl)nn1 | 0.552 |
| CCCCSc1nsc(NC(C)=O)n1 | -10.7 |
| O=C(O)c1cccc(NC(=O)c2cccc(S(=O)(=O)Nc3cccc([N+](=O)[O-])c3)c2)c1 | -0.182 |
| C=CCn1c(COc2ccccc2F)nnc1SCC(=O)Nc1cc(C)on1 | 16.1 |
| Cc1sc2c(c1C)c(=O)n(-c1ccccc1)c1nnc(C)n21 | 7.61 |

| Compound | hERG current change (%, negative = inhibition) at 10uM [%] |
| --- | --- |
| CC(C)NS(=O)(=O)c1ccc(OCC(=O)NCc2ccccc2)cc1 | 6.16 |
| Cc1ccccc1-c1cc2nc(C)c(Cl)c(=O)n2[nH]1 | -8.26 |
| COc1ccc2nc(C)cc(SCC(=O)N/N=C/c3ccc(O)c(O)c3)c2c1 | 19.9 |
| Cc1ccc(/C=C/C(=O)C2C(=O)c3ccccc3C2=O)cc1 | 12 |
| CN(C(=O)CC1C(=O)NCCN1C/C=C/c1ccccc1)C1CCOCC1 (centres unmarked) | 10.5 |
| COc1ccc(CNC(=O)c2c(O)c3cc(OC)c(OC)cc3[nH]c2=O)cc1OC | 17.8 |
| O=c1c2ccccc2nc(SCc2cn3ccsc3n2)n1-c1ccccc1F | 4.16 |
| O=C(NCCC1=CCCCC1)C1CCN(S(=O)(=O)c2cnc[nH]2)CC1 | 2.4 |
| CC(=O)NS(=O)(=O)c1ccc(N)cc1 | -0.205 |
| COc1ccc(C(=O)COC(=O)c2cccnc2SC)cc1 | 4.75 |
| COc1ccc(CC(CN)c2ccccc2)cc1 (centres unmarked) | 5.96 |
| CC(c1ccccc1)n1c(N2CCN(C)CC2)nc2c1c(=O)[nH]c(=O)n2C (centres unmarked) | -13.1 |
| O=S(=O)(c1ccc(-c2csc(=Nc3ccccc3)n2CCCN2CCOCC2)cc1)N1CCOCC1 | -40.9 |
| c1ccc2c(c1)CCc1snnc1-2 | 10 |
| COC/C=C/C1=CC2=CC(=O)C(C)(OC(=O)c3cnc4ccccc4n3)C(=O)C2=CN1CC(C)C (centres unmarked) | 17 |
| COc1ccc(CCNC(=O)CCNS(=O)(=O)c2ccc3c(c2)CCN3C(C)=O)cc1OC | -7.79 |
| COc1cc(NC(=S)NCCC(c2ccccc2)c2ccccc2)cc(OC)c1 | 3.35 |
| N#CCc1c(C#N)c(N)nc(N2CCCC(O)C2)c1C#N (centres unmarked) | 9.17 |
| CCSc1cc(N2CC(C)OC(C)C2)nc(-c2ccccc2Cl)n1 (centres unmarked) | -8.67 |
| CCCCN(C(=O)Cn1ncc(Cl)c(Cl)c1=O)c1c(N)n(CC(C)C)c(=O)[nH]c1=O | 26.1 |
| C/C=C/c1ccc(OCCCn2cncn2)c(OC)c1 | 6.41 |
| O=C(Cn1ccc(NC(=O)OCc2ccccc2)nc1=O)NCc1nc2ccccc2[nH]1 | 21.2 |
| O=C(O)CCn1c(-c2ccccc2)cc2c1CCCC2=O | 14.1 |

| Compound | hERG current change (%, negative = inhibition) at 10uM [%] |
| --- | --- |
| CCC1=C(OC(=O)N(CC)CC)N2C(=O)OC(=NCCc3c[nH]c4ccccc34)[C@]2(C)[C@H]2C1=CC[C@H]1C(=O)N(C)C(=O)[C@H]12 | 6.46 |
| COc1ccccc1Nc1nc(-c2c(C)[nH]c3ccccc23)cs1 | 16.1 |
| O=C(Nc1cccc([N+](=O)[O-])c1)c1ccc2c(c1)OCCO2 | 11.9 |
| CNP(=O)(Oc1ccccc1)OC12CC3CC(CC(C3)C1)C2 (centres unmarked) | -2.75 |
| COc1ccc(-c2cc(=O)[nH][nH]2)cc1 | 5.23 |
| C=CCn1c(C)cc(C(=O)CSc2nnc(NC(C)C)s2)c1C | -0.729 |
| CSc1nc2ccccc2cc1/C=C(\C#N)c1ccc(Cl)cc1Cl | 4.91 |
| CCOC(=O)Cn1c(O)c(N=NC(=O)CNC(=O)Cc2ccccc2)c2ccccc21 | 1.27 |
| O=C(c1ccco1)N1C(=O)c2cccc3cccc1c23 | 2.69 |
| CN1CCN(c2ccc(N)cc2Cl)CC1.Cl | 0.517 |
| CSc1ccc(S(=O)(=O)Nc2c(C)n(C)n(-c3ccccc3)c2=O)cc1 | -0.0654 |
| NS(=O)(=O)c1ccc(NC(=O)COC(=O)CC2Sc3ccccc3NC2=O)cc1 (centres unmarked) | -1.35 |
| Cn1c(=O)n(Cc2ccccc2)c(=O)c2c1nc1n2CCCN1CCc1ccccc1 | -26 |
| O=C(COc1ccc(-n2cnnn2)cc1)Nc1ccccc1OC(F)F | 4.44 |
| O=C(CCCOc1ccc(Br)cc1)Nc1nnc(C2CC2)s1 | 18.5 |
| O=C(Nc1ccc(Cl)c(Cl)c1)N1CCOCC1 | 4.52 |
| COc1ccc(NC(=O)C2CCN(S(=O)(=O)c3cccs3)CC2)cc1OC | 10.7 |
| CC1CCCC(NC2CCCCNC2=O)C1 (centres unmarked) | 4.58 |
| C[C@@H]1CN(C(=O)c2ccc(OC3CCN(S(=O)(=O)N(C)C)CC3)cc2)C[C@H](C)O1 | 14.9 |
| CC(Oc1ccccc1)C(=O)N1CCC2(CC1)Oc1ccc(F)cc1C(=O)C21CC(c2ccccc2)=NO1 (centres unmarked) | 17.1 |
